According to PubChem BioAssay AID1240 (Sanford-Burnham Center for Chemical Genomics, 2008):
Values joined by “and” are separate entries in the source; they are usually repeats but may differ in a detail not shown here. Equal values may be shown once. Hit rate of the full screen: of about 50,000 compounds, about 800 (1.6%) showed an effect of 50% or more. The list shows a part of the results.

target: Bcl-2-like protein 10 (Homo sapiens) (UniProt Q9HD36); assay: Phenotype converters, Bcl-B/TR3 peptide binding displacement, primary biochemical FP (AID 1240); conditions: GST-Bcl-B / FITC-TR3 peptide fluorescence polarization; stronger effect = higher value; compound at 3.75 mg/L;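 also: 0% = Bcl-B with tracer peptide and DMSO and 100% = tracer peptide lacking Bcl-B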
UniProt Q9HD36, sequence (Q9HD36 whole entry, looked up): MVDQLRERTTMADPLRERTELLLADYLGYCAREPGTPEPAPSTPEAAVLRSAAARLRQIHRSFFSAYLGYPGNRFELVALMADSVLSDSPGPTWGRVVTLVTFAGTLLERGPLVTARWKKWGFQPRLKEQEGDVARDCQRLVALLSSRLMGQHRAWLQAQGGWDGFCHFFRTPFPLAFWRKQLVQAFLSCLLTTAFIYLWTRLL

Structure (SMILES)	displacement
Cc1cc2c(cc1C)NC(c1ccc(OC(F)(F)F)cc1)C1=C(CC(C)(C)CC1=O)N2 (stereo not given)	-1.2%
CCOc1ccccc1/C=C1/SC(=S)N(CC(=O)OC)C1=O	0%
O=C1/C(=C\c2ccc(-c3ccc([N+](=O)[O-])cc3Br)o2)SC(=S)N1Cc1ccccc1	4%
O=C(O)c1cc2nc(-c3cccs3)cc(C(F)(F)F)n2n1	-14.6%
CC(=O)c1cccc(N2C(=O)C3C4C=CC(C4)C3C2=O)c1 (stereo not given)	28.9%
O=C(/C=C/c1ccc(F)cc1)N1CCN(Cc2ccccc2)CC1	-11.9%
COCCOC(=O)C1=C(C)NC(=O)CC1c1ccccc1OC(C)C (stereo not given)	-9.8%
O=C(O)C1C2CCC(C2)C1C(=O)Nc1nc2c(s1)CCCC2 (stereo not given)	-7.2%
C=C(C)c1cccc(C(C)(C)NC(=O)N(C)C2CCN(C)CC2)c1	-6.7%
Cc1c(C(=O)N2CCN(C)CC2)cccc1[N+](=O)[O-]	17.3%
CCCCOc1ccc2c(C)c(CC)c(=O)oc2c1	-1.3%
O=C(CN1C(=O)c2ccccc2C1=O)Nc1ccc(C(=O)Nc2cccc(O)c2)cc1	4.9%
COc1ccc(C(=O)N2CCN(Cc3ccc4c(c3)OCO4)CC2)cc1OC	10.6%
Cc1cc(C)nc(SCN2C(=O)c3ccccc3C2=O)n1	-13.4%
Cc1cccc(C)c1OCC(O)CNC(C)(C)C (stereo not given)	14%
CC(C)CC(=O)NS(=O)(=O)c1ccc(NC(=O)c2ccccc2)cc1	15.7%
Cc1cccc(N2C(=O)/C(=C3/C(=O)N(C)c4ccccc43)SC2=S)c1C	-10.3%
BrC(/C=N\N1CCN(c2ccccc2)CC1)=C\c1ccccc1	-16.7%
Cc1cc([N+](=O)[O-])ccc1-c1ccc(C(=O)Nc2ccc(Cl)cn2)o1	50.1%
CC(C)Oc1cccc(C(=O)Nc2ccc(Cl)cn2)c1	11.6%
COc1ccc(OC)c(/C=N/N2CCN(Cc3ccc(Cl)cc3)CC2)c1	-17.9%
O=C(O)CCSc1nc2ccc(N3C(=O)c4ccccc4C3=O)cc2s1	-1.3%
O=S(=O)(Cc1ccccc1)CC(O)COc1ccccc1 (stereo not given)	-5.8%

Structure (SMILES)	displacement
CCOC(=O)Cc1nnc(NC(=O)c2cccs2)s1	-2.9%
COc1ccc(N2C(=O)c3ccccc3NC2c2ccc(C)cc2)cc1 (stereo not given)	1.9%
Cc1ccc(-n2cc(C=C3C(=O)NC(=O)NC3=O)cn2)cc1C	110%
CCc1c(O)nc(SCC(=O)c2ccccc2)[nH]c1=O	24.1%
CCOc1ccccc1N1CCN(C(=O)c2cc(OC)c(OC)c(OC)c2)CC1	2.1%
O=C1c2cccc3c([N+](=O)[O-])ccc(c23)C(=O)N1c1ccc(O)cc1	20.7%
CSc1ccc(S(=O)(=O)N(CC(=O)N2CCCC2)c2ccc(C)cc2)cc1	4.9%
CCSc1nnc2c(n1)[nH]c1c(C)cccc12	0.1%
COc1ccc(N=Cc2cccc(C)c2O)cc1Cl	-2.5%
O=C(c1cn(-c2ccccc2)nc1-c1ccccc1)N1CCCCC1	14.4%
CC(Oc1cccc(Cl)c1)C(=O)NCc1ccco1 (stereo not given)	8.2%
CCc1c(C)sc(NC(=O)c2cccnc2)c1C(N)=O	3.4%
Cc1ccc(S(=O)(=O)NC(=O)NC(C)(C)C)cc1	7.1%
NC(=O)c1ccccc1NC(=O)COc1cccc2ccccc12	-10.2%
COCC(O)CSCc1ccc(Cl)cc1 (stereo not given)	2.1%
O=C(c1cc2nc(-c3ccccc3)cc(-c3ccccc3)n2n1)N1CCCC1	26.9%
N/C(=N\OC(=O)Cc1ccccc1)c1ccccc1	-7.1%
Cc1cc(/C=N/NC(N)=S)c(C)n1-c1ccc(N(C)C)cc1	-5.2%
COc1ccc(NC(=O)CN(c2ccc(C)cc2)S(=O)(=O)c2ccc(SC)cc2)cc1OC	-2.5%
CN1CCN(C(=O)c2ccccc2NC(=O)CCN2C(=O)c3ccccc3C2=O)CC1	-5.9%
O=C(c1cccc(F)c1)N1CCN(C(=O)c2cccc(Cl)c2)CC1	-18.6%
CCC(=O)/C(C)=C(\NC(=O)c1ccccc1)c1ccccc1	-4.8%
CCCCOc1ccc(/C=N\Nc2cc(-n3nc(C)cc3C)nc(C)n2)cc1	-13.9%

Structure (SMILES)	displacement
COc1ccccc1/C=C1\SC(=S)N(CC(=O)NNc2ccccc2)C1=O	-0.9%
CCc1ccc(CN2CCN(C(=O)c3ccc(OC)cc3)CC2)cc1	13.3%
Cc1ccc(-c2nn(CCC#N)cc2C=O)o1	-2.4%
O=C(O)CCCCCN1C(=O)C(=O)/C(=C(/O)c2ccc(Cl)cc2)C1c1ccccc1F (stereo not given)	5.8%
COc1cc(N/N=C/c2ccccc2O)ncn1	-3.2%
Cc1c(Cc2ccccc2)c(=O)oc2cc(OCC(=O)C(C)(C)C)ccc12	-6.3%
Cc1ccc(N(CC(=O)NC2CCCCC2)S(=O)(=O)c2ccc(F)cc2)cc1	3.3%
CC(=O)NC(NC(=S)N1CCCCCC1)C(Cl)(Cl)Cl (stereo not given)	0.7%
Cc1ccc(S(=O)(=O)N(CC(=O)Nc2ccccc2C)Cc2ccccc2)cc1	7.2%
CCCC(=O)Nc1cc2nn(-c3ccc(C)cc3)nc2cc1C	-9.9%
COc1ccc(NC(=O)c2c(N)sc3c2CCCC3)cc1	11.1%
CSc1ccc(S(=O)(=O)N(CC(=O)Nc2cccc(C)c2)c2ccc(C)cc2)cc1	10.1%
O=C1NN(c2ccccc2)C(=O)C2C3C=CC(C4CC34)C12 (stereo not given)	-2.2%
CCOc1ccc(N2C(=O)/C(=C/c3cccc4ccccc34)SC2=S)cc1	2.6%
COC(=O)c1c(C)oc2ccc(OCc3cc(C)ccc3C)cc12	13.4%
O=C1N=C(N2CCOCC2)S/C1=C/c1ccc(Cl)cc1	-0.1%
Cc1ccc(NC(=O)c2cc(C(=O)Nc3ccc(C)c(C)c3)n(C)n2)cc1C	11.3%
COc1ccc(N2C(=O)C=CC2=O)c([N+](=O)[O-])c1	11.9%
O=C(N1CCN(Cc2ccccc2)CC1)C(Cl)(Cl)Cl	15.8%
CCOC(=O)C(CCCOc1ccccc1)C(=O)OCC	15.3%
O=C(Cc1ccc([N+](=O)[O-])cc1)Nc1ccc(F)cc1F	-8.7%
CN(C)c1ccc(/C=c2\sc3nc4ccccc4n3c2=O)cc1	107%
S=C1NC(c2ccccc2)N2C(=S)NC(c3ccccc3)N12 (stereo not given)	-5.1%

Structure (SMILES)	displacement
CC(C)CNC(=O)CN(c1cccc(Cl)c1)S(C)(=O)=O	2.9%
Cc1ccc(P(=O)(c2ccc(C)cc2)C(C)(C)O)cc1	-6.7%
CN1CCN(C(=O)c2nn3c(C(F)(F)F)c4c(nc3c2Cl)-c2ccccc2CC4)CC1	-1%
O=C(c1ccccc1)N1CCN(C2CCC(c3ccccc3)CC2)CC1 (stereo not given)	-18.9%
O=C(Nc1ccccc1Cl)Nc1cccc2cccnc12	-3.5%
CC(=O)OC1COC(n2ncc(=O)[nH]c2=S)C(OC(C)=O)C1OC(C)=O (stereo not given)	-8.5%
C=C(C)c1ccccc1NC1=NS(=O)(=O)c2ccccc21	5.7%
O=C(NCc1ccccc1)c1ccc2nccnc2c1	0.4%
C/C(=N\NC(=O)c1c[nH]c2ccccc12)c1ccco1	1.5%
CCCOc1ccc(N2C(=O)CC(N3CCN(Cc4ccccc4)CC3)C2=O)cc1 (stereo not given)	2.2%
O=C(NCc1ccc2c(c1)OCO2)NC12CC3CC(CC(C3)C1)C2	-8.3%
CCOc1ccc(C(=O)N2CCN(c3ccccc3OC)CC2)cc1	-1.2%
CC(Nc1cc(=O)n(C)c(=O)n1C)c1ccccc1 (stereo not given)	10%
Cc1ccc(S(=O)(=O)/N=C2\C=C(Sc3ncn[nH]3)C(=O)c3ccccc32)cc1	42.2%
COc1ccccc1NC(NC(=O)c1ccco1)C(=O)c1ccccc1 (stereo not given)	-0.4%
O=C(O)c1cc2ccc(O)cc2oc1=O	26.4%
O=C1C(Cc2cccc([N+](=O)[O-])c2)S/C(=N/N=C/c2ccccc2)N1c1ccccc1 (stereo not given)	7.7%
Nc1c(C(=O)O)nnn1Cc1ccccc1	5%
COc1ccc2nc(NC(=O)C(C)(C)C)sc2c1	3.6%
Cc1cc(=O)n2[nH]c(-c3ccccc3)cc2n1	-2.2% and 5.7%
COc1ccc(OC)c(NC(=O)C2C3CCC(O3)C2C(=O)O)c1 (stereo not given)	6.9%
Cc1ccnc(NC(=O)COc2ccc(C)c(C)c2)c1	3%
CCOC(=O)COc1ccc(/C=C2/NC(=S)NC2=O)cc1OC	-3.3%

Structure (SMILES)	displacement
O=C1CCSc2nc(-c3cccc([N+](=O)[O-])c3)nn21	8.8%
COc1ccc(CCNC(=O)c2c(-c3ccccc3Cl)noc2C)cc1OC	13.1%
CC(C)(C)c1cc(Br)ccc1OCC(=O)Nc1ccccc1Cl	-14.6%
Cn1cccc1CN1CCN(Cc2cc(Br)ccc2O)CC1	10.7%
O=C(Nc1ccccc1)c1ccccc1N=Cc1ccc(Cl)c([N+](=O)[O-])c1	6.6%
CC1CN(C)C(C)CC1NCc1ccccc1 (stereo not given)	0.1%
CCC1(C)CC(CC#N)(c2ccc(OC)cc2)CCO1 (stereo not given)	-3.1%
COc1cc(NC(=O)c2cccc(F)c2)cc(OC)c1	2.1%
O=C(COc1ccc(Cl)cc1Br)Nc1ccc2c(c1)OCO2	-6.7%
COC(=O)C1C(=O)CC(C)(O)C(C(=O)OC)C1c1ccc2c(c1)OCO2 (stereo not given)	-3.7%
CC1CN(Cc2c(O)ccc3c(-c4ccccc4)cc(=O)oc23)CC(C)O1 (stereo not given)	10.9%
O=C(/C=C/c1cc(Br)cs1)Nc1ccccc1	11.3%
O=C1N/C(=N/N=C/c2ccccc2)SC1Cc1cccc(Cl)c1 (stereo not given)	22.9%
CC(=O)N(C)c1ccc(NC(=O)c2ccccc2I)cc1	-7.3%
CN1CCN(C(=O)CC23CC4CC(CC(C4)C2)C3)CC1	-9.2%
O=C(NCc1ccco1)c1c(Cl)cccc1Cl	-1.9%
CCCC(=O)c1ccc(N2CCN(C(=O)CCC)CC2)c(F)c1	7.1%
CCCC/C(C)=N\NC(=O)C(=O)NC(C)C	-9.4%
NC(=O)c1cc(NC(=O)c2cccc(F)c2)ccc1Cl	11.8%
COc1ccc(/C(O)=C/c2nc3ccccc3oc2=O)cc1	-1.7%
CCOc1cc(/C=C2/SC(=S)N(Cc3ccccc3)C2=O)ccc1OC(=O)c1cccc([N+](=O)[O-])c1	7.5%
O=c1c2c3c(sc2n2c(=S)[nH]nc2n1-c1ccccc1)CCCC3	-9%
CCCc1ccc(-c2nc(Cc3ccccc3OC)no2)cc1	-7.7%
